The whole screen tested about 330,000 compounds, of which about 80 (0.02%) were called active. The shares of active, inactive and inconclusive entries below differ from those in the screen. Calls come from the whole dose curve; as a rule, active = well fitted activation curve with a large enough effect; inconclusive = small, poorly fitted or top-dose-only effect; inactive = flat fitted curve, though single readings scatter. Potencies of inconclusive entries are left out as doubtful fits.
The compounds below were run against Beta-2 adrenergic receptor (Homo sapiens) (UniProt P07550) (assay: qHTS assay of beta-arrestin-biased ligands of beta2-adrenergic receptor). Settings: beta-arrestin recruitment to beta2AR, cell-based reporter; series mostly up to 46.1 µM; activation: at the top concentration.
UniProt P07550, sequence (P07550 whole entry, looked up): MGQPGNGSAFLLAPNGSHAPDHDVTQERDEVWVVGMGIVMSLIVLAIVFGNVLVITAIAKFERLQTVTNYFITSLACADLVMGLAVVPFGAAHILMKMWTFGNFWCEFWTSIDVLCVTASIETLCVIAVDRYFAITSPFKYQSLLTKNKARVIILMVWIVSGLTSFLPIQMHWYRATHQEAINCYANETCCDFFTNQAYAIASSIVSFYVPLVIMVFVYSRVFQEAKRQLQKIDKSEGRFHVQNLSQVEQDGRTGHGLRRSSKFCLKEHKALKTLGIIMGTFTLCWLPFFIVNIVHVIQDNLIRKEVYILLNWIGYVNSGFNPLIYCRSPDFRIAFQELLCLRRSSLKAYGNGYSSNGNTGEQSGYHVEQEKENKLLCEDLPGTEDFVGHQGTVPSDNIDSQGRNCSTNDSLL
Method in brief: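 Agonist activity is measured as luciferase luminescence downstream of beta-arrestin recruitment to recombinant beta2-AR in Tango cells. Exposure lasts 18 hr at 37 degrees C, and curves are categorized by r2, response size and activity.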
In the case of `Oc1ccc(/C=N/NC(=S)NC2CC3CCC2C3)cc1` (centres undefined), the Potency is reported as inconclusive [rising, single point].
`S=C(NCCc1ccccn1)Nc1ccccc1` was tested, and the “activation” value was inactive: 0.152%.
In the case of `COc1ccc2ccccc2c1/C=N/NC(=S)NCCN1CCOCC1`, the Potency is reported as inconclusive [rising, single point].
For `CCN(CC)CCNc1ccc(CO)c2sc3ccccc3c(=O)c12`, the “activation” value was inactive: -1.96%.
For `Cc1cc(=O)n2nc(N3CCCC3C(=O)Nc3cccc(Cl)c3C)sc2n1` (centres undefined), the “activation” value was inactive: 0.315%.
For `CCN(CC)C(=O)[C@H]1CC(CC(=O)NCc2ccc(OC)c(OC)c2)C(=O)N2CCc3c([nH]c4ccccc34)[C@]12C` (some centres undefined), the Potency was inconclusive [rising, single point].
`O=C(CCl)N(Cc1ccccc1)c1ccccc1` was tested, and the “activation” value was inactive: -0.257%.
In the case of `CC(=O)Nc1ccc(C2=NN(c3ccccc3)C(c3cccs3)C2)cc1` (centres undefined), the Potency is reported as inconclusive [rising, single point].
With `COc1ccc(N/C=C/C(=O)C(F)(F)F)cc1` the Potency was inconclusive [rising, single point].
With `CN(C)c1cccc2c1c(NC(=O)Nc1ccc(Cl)cc1Cl)nn2C` the “activation” value was inactive: -1%.
For `CCOC(=O)c1nn(-c2ccc(OC)cc2)c(=O)c2c(N)scc12`, the Potency was “inactive”.
In the case of `CCOc1ccc(CNC(=S)N/N=C\c2ccc([N+](=O)[O-])cc2)cc1`, the Potency is reported as inconclusive [rising, single point].
`COCc1ccc(O)c2ncccc12` was tested, and the Potency was inconclusive [activator, partial curve].
`COc1ccc(N2CCN(C(=O)CSc3nnc4n3C(C)(C)Cc3ccccc3-4)CC2)cc1` was tested, and the Potency was inconclusive [rising, single point].
For `Cc1ccc(NC(=O)c2ccc(Nc3c([N+](=O)[O-])cc([N+](=O)[O-])cc3[N+](=O)[O-])cc2)cc1`, the “activation” value was inactive: -1.74%.
For `CC(=O)c1cccc(CN2CCN(CCC(C)C)C(CCO)C2)c1` (centres undefined), the Potency was inconclusive [rising, single point].
For `CCOC(=O)Nc1ccc2c(c1)N(C(=O)N(CC)CC)c1ccccc1CC2`, the Potency was inconclusive [rising, partial curve, poor fit].
With `CN1CCCN(C2C3CC4CC(C3)CC2C4)CC1` (centres undefined) the “activation” value was inactive: 0.666%.
`Cc1cccnc1NC(=S)NCc1ccco1` was tested, and the Potency was inconclusive [rising, single point].
`CN1/C(=C\C(=O)C(F)F)C(C)(C)c2ccccc21` was tested, and the “activation” value was inactive: -0.181%.
With `COc1ccc(C2CC(O)(c3ccccc3)Oc3cc(OC)c(OC)c(OC)c32)cc1` (centres undefined) the Potency was inconclusive [rising, single point].
In the case of `O=C(NCCc1ccccc1)C(NS(=O)(=O)c1cccc2nsnc12)c1ccccc1` (centres undefined), the “activation” value is reported as inactive: -0.128%.
For `O=C(Cn1ncc(Cl)c(Cl)c1=O)c1ccc2c(c1)OCCO2`, the Potency was inconclusive [rising, single point].
`CC(C)NC(=S)N/N=C/c1cccs1` was tested, and the Potency was inconclusive [rising, single point].
In the case of `CCN(CC(=O)Nc1c(F)cccc1F)C(=O)c1ccc(C2SCCS2)cc1`, the Potency is reported as inconclusive [activator, full curve].
With `Cc1ccc(C(=S)NCS(=O)(=O)c2ccc(C)cc2)cc1` the Potency was inconclusive [rising, single point].
`N=c1oc2c3c4c(cc2cc1C(=O)Nc1ccccc1)CCCN4CCC3` was tested, and the “activation” value was inactive: -0.592%.
For `Cc1ccc(S(=O)(=O)N2CCCN(S(=O)(=O)c3ccc4c(c3)OCCO4)CC2)cc1`, the “activation” value was inactive: 0.365%.
With `Cc1ccc(S(=O)(=O)NCCC(C)C)cc1[N+](=O)[O-]` the Potency was inconclusive [rising, single point].
In the case of `CCOC(=O)c1cnc(-n2nc(C)cc2C)nc1NC`, the Potency is reported as active: 17.8 µM.
With `C/C(=N\NC(=S)NC(C)C)c1ccccc1OC(F)F` the Potency was inconclusive [rising, single point].
`COc1ccc(CCNC(=O)C2CCN(S(=O)(=O)c3cccc4nsnc34)CC2)cc1OC` was tested, and the “activation” value was inactive: -0.506%.
`CCOC(=O)C1CCCN(c2ncnc3c2[nH]c2cccc(OC)c23)C1` (centres undefined) was tested, and the Potency was inconclusive [rising, single point].
With `Oc1ccc(NCc2ccccc2OCc2ccccc2)cc1` the Potency was active: 7.31 µM.
With `COc1ccc(/C=N/Nc2nncc3ccccc23)c(OC)c1` the Potency was inconclusive [activator, partial curve].
In the case of `O=C(NC(=S)Nc1ccc(Cl)cc1)c1ccccc1`, the Potency is reported as inconclusive [rising, single point].
In the case of `O=C(N/N=C/c1ccccc1OC(=O)c1ccc2c(c1)OCO2)c1ccccc1`, the Potency is reported as inconclusive [rising, single point].
`COc1ccc(-c2csc(CCN3N=C(C)CC3=O)n2)cc1` was tested, and the “activation” value was inactive: 0.224%.
`CC(C)[C@H](NC(=O)c1ccccc1Cl)C(=O)Nc1nc(-c2ccccn2)cs1` was tested, and the Potency was inconclusive [rising, single point].
In the case of `COc1ccc(N2CCN(CCOc3ccc4c(C)cc(=O)oc4c3)CC2)cc1`, the Potency is reported as inconclusive [rising, single point].
In the case of `C=CCNC(=S)NN=C1CCC(c2ccccc2)CC1` (centres undefined), the Potency is reported as inconclusive [rising, single point].
`CCN(CC)CCC(=O)N1c2ccccc2Sc2ccc(NC(=O)OC)cc21` was tested, and the Potency was inconclusive [rising, single point].
`Cc1ccnc(NC(=O)c2ccc(Cl)c(S(=O)(=O)N3CCCCC3)c2)c1` was tested, and the “activation” value was inactive: -0.516%.
`CC(=O)NC(c1ccco1)c1cc(Br)c2cccnc2c1O` (centres undefined) was tested, and the Potency was inconclusive [rising, single point].
With `COc1ccc(C(C)NC(=O)c2ccc(Br)cc2)cc1OC` (centres undefined) the Potency was inconclusive [rising, single point].
For `Cc1cc(C(=O)Nc2cccc3c2O[C@@H](CN(C)S(=O)(=O)c2ccccc2)[C@H](C)CN([C@@H](C)CO)C3=O)n(C)n1`, the Potency was inconclusive [rising, single point].
`Cc1ccc(NC(=O)/C=C/c2ccc([N+](=O)[O-])s2)cc1` was tested, and the Potency was inconclusive [activator, full curve].
For `COCc1cc(CN2CCCC2)c(O)c2ncccc12`, the Potency was inconclusive [activator, partial curve].
`O=C(NCc1ccc(Cl)cc1)c1cccc(NC(=O)c2ccccc2)c1` was tested, and the Potency was inconclusive [rising, single point].
`Fc1cc(NCc2ccccc2)nc(NCc2ccccc2)n1` was tested, and the “activation” value was inactive: 2.44%.
With `O=C(NCCN1CCCCC1)c1cc(OCC(F)(F)F)ccc1OCC(F)(F)F` the “activation” value was inactive: -0.01%.
`O=[N+]([O-])c1ccc(CNc2ccc(Cl)cc2)s1` was tested, and the Potency was inconclusive [rising, single point].
With `COc1ccc(C(=O)NCCSc2ccccc2C)cc1` the Potency was inconclusive [rising, single point].
With `Cc1cc(N/N=C/c2ccccc2[N+](=O)[O-])nc(-n2nc(C)cc2C)n1` the Potency was inconclusive [rising, single point].
For `COCCNC(=S)N/N=C(\C)c1ccccc1F`, the Potency was inconclusive [rising, single point].
With `CCc1c(C2(O)CCCCC2)[nH]c2cc(C(F)(F)F)ccc12` the “activation” value was inactive: 0.488%.
In the case of `COc1cc(C=C(c2nc3ccccc3s2)c2nc3ccccc3s2)cc(OC)c1O`, the Potency is reported as inconclusive [activator, partial curve].
In the case of `C=CCNC(=S)N/N=C(\C)c1cccc(NC(C)=O)c1`, the Potency is reported as inconclusive [rising, single point].
With `Cc1cc2c(cc1S(=O)(=O)Nc1cccc(C)c1C)OCC(=O)N2` the “activation” value was inactive: -1.46%.
`C[C@H](CO)N1C[C@H](C)[C@@H](CN(C)Cc2ccc3c(c2)OCO3)Oc2c(NC(=O)Cc3ccccc3)cccc2C1=O` was tested, and the Potency was inconclusive [rising, single point].
In the case of `CCCC1=C/C(=C/c2ccc(-c3ccccc3OC)o2)C(=O)O1`, the Potency is reported as inconclusive [rising, single point].
In the case of `C/C(=N\NC(=S)NC1CCCCC1)c1cccs1`, the Potency is reported as inconclusive [rising, single point].
For `O=C(O)CCc1ccc(-c2ccccc2)o1`, the Potency was inconclusive [rising, single point].
In the case of `COc1ccc(NC(=S)Nc2ccccn2)cc1`, the Potency is reported as inconclusive [rising, single point].
In the case of `O=C(COc1ccccc1)NCC(=O)N/N=C/c1cc(Br)ccc1OCc1ccccc1`, the “activation” value is reported as inactive: 0.423%.
`CC(NC(=O)/C=C/c1ccco1)c1nc2ccccc2n1Cc1cccc(Cl)c1` (centres undefined) was tested, and the Potency was inconclusive [rising, single point].
In the case of `O=C1NC(c2ccc(-c3ccccc3[N+](=O)[O-])o2)C(C(=O)c2ccccc2)C(O)(C(F)(F)F)N1` (centres undefined), the Potency is reported as inconclusive [rising, single point].
For `CCOc1ccc(/C=N/NC(=S)NC2CC3CCC2C3)cc1` (centres undefined), the Potency was inconclusive [rising, single point].
For `O=C(NCc1ccco1)c1cccn2c(=O)c3c4c(sc3nc12)CCCC4`, the Potency was inconclusive [rising, single point].
`S=C(Nc1ccccc1)c1ccccn1` was tested, and the Potency was inconclusive [rising, single point].
For `CS/C(N)=N/N=C/c1cc(C)ccc1O`, the Potency was inconclusive [rising, single point].
`Cc1cc(C)cc(NCCC#N)c1` was tested, and the Potency was “inactive”.
`Clc1ccccc1C1Nc2cccc3cccc(c23)N1` was tested, and the Potency was inconclusive [activator, partial curve].
In the case of `CC(=O)Nc1cc(N=Cc2ccc(O)cc2O)c(Cl)cc1Cl`, the Potency is reported as inconclusive [rising, single point].
Note: nearly all actives have a fitted effect of over 65% in size.
Potency is the fitted concentration of half-maximal effect; tags give direction and shape of the fitted curve.
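Throughout, for activation: 0% = DMSO controls and full agonism = EC100 isoproterenol or metaproterenol.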
